According to paper PMC10691697, “A small molecule exerts selective antiviral activity by targeting the human cytomegalovirus nuclear egress complex” (PLOS Pathogens, 2023):

Assays:
[1] = test system: HCMV expressing GFP (53-F BADGFP); conditions: 0.20 μM compound; 6 dpi; replicates
HSV-1 strain KOS = assay type: cell-based, herpes simplex virus 1; conditions: 2 dpi, replicates
Description: Standard plaque reduction assays used to assess the antiviral activity of GK1 and GK2 against HSV in HFF cells were performed as described with minor modifications. Briefly, 1x10^5 HFF cells in each well of a 24-well plate were infected with ~ 100 PFU/well of HSV-1 strain KOS. After 2h, the inocula was removed and DMEM containing methylcellulose, 1% DMSO, and various concentrations of GK1 or GK2 was added. After two days, plaques were stained with crystal violet and counted. ED50’s for GK1 or GK2 were calculated as described above.

HFF cells = assay: in vitro; assay type: cell-based, human; conditions: replicates
Description: Cytotoxicities of various compounds were determined using a WST-1 assay that measures metabolic activity (Roche), and CC50’s were calculated as described previously.

Compound: C=CC(=O)Nc1cccc(Oc2cc(Cl)nc3[nH]ccc23)c1 [GK1]
- anti-HCMV: number of plaques relative to DMSO vehicle [1]: 63.0000 and 77.0000 and 66.0000
- anti-HSV: number of plaques relative to DMSO vehicle (HSV-1 strain KOS; 0.80 μM compound): 90.0000 and 100.0000 (2×)
- anti-HSV: number of plaques relative to DMSO vehicle (HSV-1 strain KOS; 1.60 μM compound): 78.0000 and 92.0000 and 85.0000
- anti-HSV: number of plaques relative to DMSO vehicle (HSV-1 strain KOS; 50.00 μM compound): 0.0000
- cytotoxicity on HFF: WST-1 absorbance relative to DMSO vehicle (HFF cells; 0.20 μM compound, 6 days): 100.0000 (2×) and 95.0000
- cytotoxicity on HFF: WST-1 absorbance relative to DMSO vehicle (HFF cells; 0.80 μM compound, 2 days): 105.0000 and 95.0000 and 100.0000
- cytotoxicity on HFF: WST-1 absorbance relative to DMSO vehicle (HFF cells; 1.60 μM compound, 2 days): 110.0000 and 97.0000 and 102.0000
- cytotoxicity on HFF: WST-1 absorbance relative to DMSO vehicle (HFF cells; 50.00 μM compound, 2 days): 33.0000 and 41.0000 and 45.0000

Several values for one entry are separate records, joined by “and”; a condition that tells them apart may be missing. Identical values can stand only once. Like-named read-outs stand apart in the source and are kept apart here.
